Assay results taken from PubChem BioAssay (Tox21).
Where “and” joins values, the source holds several entries; their conditions need not be identical. Equal values may be shown once. This list was built around the results that the source calls inconclusive (neither active nor inactive); the mix of calls is not that of the screen. For some of these results: Potencies of inconclusive entries are doubtful fits and often do not repeat. Calls of active or inactive are those of the source. Unless noted, the call rests on the fitted dose curve; in most records, active means well fitted curve in the direction sought with a large enough effect in the repeat runs; inconclusive means weak or mixed curves; inactive means no such curve, though single readings can be large; an effect the other way counts as inactive or inconclusive.

Columns and labels:
[1] = target: Nuclear receptor ROR-gamma (Homo sapiens) (UniProt P51449); assay: qHTS assay to identify small molecule antagonists of the retinoid-related orphan receptor gamma (ROR-gamma) signaling pathway (AID 1159521; further: nearly all actives have a fitted effect of over 50% in size; further: potency means the concentration at half of the fitted maximal effect;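 on activity change, negative = inhibition: CHO cells with doxycycline inducible ROR-gamma driving an RORE luciferase reporter; top concentration of the series differs between compounds; on the % scale 0 is the no-effect control and ±100 the full control effect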)
Outline: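 Luminescence readout (ONE-Glo, 30 min RT) after 16 h doxycycline induction; loss of signal scored as antagonism. CHO cells with TET-inducible RORγ and RORE-LUC reporter; compounds added 2 h before 1 uM final doxycycline.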

[2] = qHTS assay to identify small molecule agonists of the AP-1 signaling pathway (AID 1159526; calls by dose curve; further: potency means the concentration at half of the fitted maximal effect; on activation: on the % scale 0 is the no-effect control and ±100 the full control effect); settings: ME-180 (cervical carcinoma) AP-1-bla reporter, beta-lactamase FRET ratio, 5 h; activation: at 76.8 µM (top of the series) unless noted
[3] = qHTS assay for small molecule agonists of the antioxidant response element (ARE) signaling pathway (AID 743202; active means well fitted activation curve with a large enough effect in the signal ratio in the repeat runs, not every such curve was filed as active; inconclusive means weak or mixed curves, or effect the other way; inactive means no such curve, though single readings can be large or run the other way; the % refers to the signal ratio; further: potency means the concentration at half of the fitted maximal effect); settings: HepG2 ARE-bla reporter, beta-lactamase FRET, 16 h; activation: at 73.3 µM (top of the series) unless noted
Outline: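 After 16 hours of compound treatment at 37 C, HepG2 cells with a stably integrated ARE-driven beta-lactamase reporter were loaded 2 hours at room temperature with LiveBLAzer B/G FRET substrate and fluorescence intensity measured.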

[4] = qHTS assay for small molecule activators of the heat shock response signaling pathway (AID 743210; active means well fitted activation curve with a large enough effect in the signal ratio in the repeat runs, with a control signal flat, not every such curve was filed as active; inconclusive means weak or mixed curves; the % refers to the signal ratio; further: potency means the concentration at half of the fitted maximal effect; on activation: on the % scale 0 is the no-effect control and ±100 the full control effect); settings: HeLa HSE-bla reporter, beta-lactamase ratio, 5 h; activation: at 62.6 µM (top of the series) unless noted
Outline: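 Compound exposure lasted 5 h at 37 C in HeLa cells carrying a heat-shock-element-driven beta-lactamase reporter. Read-out: fluorescence intensity after 2.5 h room-temperature loading with LiveBLAzer B/G FRET substrate.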

[5] = target: Peroxisome proliferator-activated receptor delta (Homo sapiens) (UniProt Q03181); assay: qHTS assay to identify small molecule antagonists of the peroxisome proliferator-activated receptor delta (PPARd) signaling pathway (AID 743215; active means well fitted inhibition curve with a large enough effect in the signal ratio in the repeat runs, not every such curve was filed as active; inconclusive means weak or mixed curves, or effect the other way; inactive means no such curve, though single readings can be large or run the other way; the % refers to the signal ratio; further: potency means the concentration at half of the fitted maximal effect; on ratio activity, negative = inhibition: on the % scale 0 is the no-effect control and ±100 the full control effect); settings: HEK293H PPARd-UAS-bla, beta-lactamase FRET ratio, antagonist, 17 h; ratio activity, negative = inhibition: at 62 µM (top of the series) unless noted
Chain of UniProt Q03181 (Q03181 whole entry, looked up): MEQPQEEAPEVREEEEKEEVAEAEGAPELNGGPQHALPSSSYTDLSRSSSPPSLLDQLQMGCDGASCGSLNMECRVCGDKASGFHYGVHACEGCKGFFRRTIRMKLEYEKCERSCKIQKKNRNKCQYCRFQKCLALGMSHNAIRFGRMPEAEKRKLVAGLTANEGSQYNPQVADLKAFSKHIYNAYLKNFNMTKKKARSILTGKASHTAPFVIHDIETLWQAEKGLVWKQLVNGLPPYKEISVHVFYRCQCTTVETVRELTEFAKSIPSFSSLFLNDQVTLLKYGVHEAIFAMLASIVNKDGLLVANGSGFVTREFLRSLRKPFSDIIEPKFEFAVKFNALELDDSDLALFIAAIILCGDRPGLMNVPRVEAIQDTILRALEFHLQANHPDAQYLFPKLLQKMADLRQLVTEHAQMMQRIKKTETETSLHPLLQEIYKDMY
Outline: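 Here, a reporter line (HEK293H, beta-lactamase under a UAS) measures PPARd signaling. Compounds are tested against agonist L165041 at 300 nM final concentration over 17 h at 37 C, with fluorescence read after substrate.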

[6] = qHTS assay for small molecule agonists of the antioxidant response element (ARE) signaling pathway - cell viability counter screen (AID 743203; calls by dose curve; further: nearly all actives have a fitted effect of over 55% in size; further: potency means the concentration at half of the fitted maximal effect); settings: ARE-bla HepG2 viability, CellTiter-Glo luminescence, 16 h; viability change, negative = cytotoxic: at 73.3 µM (top of the series)
Outline: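 ATP content via CellTiter-Glo luminescence served as the viability measure. Cells: ARE-bla HepG2, 2,000 per well. Exposure: 16 hrs, 37C/5% CO2.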

[7] = qHTS assay to identify small molecule agonists of the peroxisome proliferator-activated receptor delta (PPARd) signaling pathway - cell viability counter screen (AID 743211); settings: PPARd-bla HEK293H viability, CellTiter-Glo luminescence, 17 h; activity change, negative = cytotoxicity: at 62.6 µM (top of the series); further: potency means the concentration at half of the fitted maximal effect; nearly all actives have a fitted effect of over 55% in size
Outline: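 Read-out: CellTiter-Glo luminescence, 30 min RT, measured in the same wells as the beta-lactamase reporter. Cells: GeneBLAzer PPAR delta UAS-bla HEK293H, 3000 cells/well, compound exposure 17 h at 37C.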

[8] = target: Bile acid receptor (Homo sapiens) (UniProt Q96RI1); assay: qHTS assay to identify small molecule antagonists of the farnesoid-X-receptor (FXR) signaling pathway (AID 743217; active means well fitted inhibition curve with a large enough effect in the signal ratio in the repeat runs, not every such curve was filed as active; inconclusive means weak or mixed curves, or effect the other way; inactive means no such curve, though single readings can be large or run the other way; the % refers to the signal ratio; further: potency means the concentration at half of the fitted maximal effect); settings: HEK293T FXR-UAS-bla, beta-lactamase ratio, CDCA-stimulated, 16 h; activity change, negative = inhibition: at 62.6 µM (top of the series) unless noted
Chain of UniProt Q96RI1 (Q96RI1 whole entry, looked up): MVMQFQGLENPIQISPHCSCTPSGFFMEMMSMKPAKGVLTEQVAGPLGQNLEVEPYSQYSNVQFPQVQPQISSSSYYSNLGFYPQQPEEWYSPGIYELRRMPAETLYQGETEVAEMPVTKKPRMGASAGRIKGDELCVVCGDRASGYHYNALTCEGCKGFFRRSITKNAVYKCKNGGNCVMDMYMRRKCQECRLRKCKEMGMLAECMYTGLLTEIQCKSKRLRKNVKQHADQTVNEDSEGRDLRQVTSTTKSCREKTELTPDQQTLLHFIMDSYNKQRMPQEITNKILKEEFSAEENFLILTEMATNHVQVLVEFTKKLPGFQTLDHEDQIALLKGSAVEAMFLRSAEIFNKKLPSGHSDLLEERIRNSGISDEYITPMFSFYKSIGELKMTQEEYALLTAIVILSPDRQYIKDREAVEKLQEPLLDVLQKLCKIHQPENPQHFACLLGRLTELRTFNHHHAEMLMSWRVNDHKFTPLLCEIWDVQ
Outline: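 Test compounds are pin-transferred onto FXR-bla HEK 293T cells, then chenodeoxycholic acid is added at 50 uM final. After 16 h at 37 °C, LiveBLAzer B/G substrate is applied for 2 h at room temperature and fluorescence read.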

[9] = qHTS assay to identify small molecule agonists of the vitamin D receptor (VDR) signaling pathway - cell viability counter screen (AID 743224); settings: VDR-bla HEK293T viability, CellTiter-Glo luminescence, 16 h; activity change, negative = cytotoxicity: at 62.6 µM (top of the series); further: potency means the concentration at half of the fitted maximal effect; nearly all actives have a fitted effect of over 50% in size
Outline: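 CellTiter-Glo viability readout on VDR-bla cells, measured after 16 h of compound treatment at 37C in the same wells.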

[10] = qHTS assay to identify small molecule antagonists of the peroxisome proliferator-activated receptor delta (PPARd) signaling pathway - cell viability counter screen (AID 743213); settings: PPARd-bla HEK293H viability, CellTiter-Glo luminescence, 17 h; viability change, negative = cytotoxic: at 62 µM (top of the series) unless noted; further: on the % scale 0 is the no-effect control and ±100 the full control effect; nearly all actives have a fitted effect of over 50% in size
Outline: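 Agonist-stimulated (L165041, 300 nM final) HEK293H PPARd UAS-bla cells are exposed to compounds for 17 h at 37 C, and ATP-based luminescence (CellTiter-Glo) from the same wells reports cytotoxicity.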

[11] = target: Vitamin D3 receptor (Homo sapiens) (UniProt P11473); assay: qHTS assay to identify small molecule agonists of the vitamin D receptor (VDR) signaling pathway (AID 743222; calls by dose curve; further: potency means the concentration at half of the fitted maximal effect); settings: HEK293T VDR-UAS-bla, beta-lactamase FRET ratio, 16 h; activation: at 63.5 µM (top of the series) unless noted
Chain of UniProt P11473 (P11473 whole entry, looked up): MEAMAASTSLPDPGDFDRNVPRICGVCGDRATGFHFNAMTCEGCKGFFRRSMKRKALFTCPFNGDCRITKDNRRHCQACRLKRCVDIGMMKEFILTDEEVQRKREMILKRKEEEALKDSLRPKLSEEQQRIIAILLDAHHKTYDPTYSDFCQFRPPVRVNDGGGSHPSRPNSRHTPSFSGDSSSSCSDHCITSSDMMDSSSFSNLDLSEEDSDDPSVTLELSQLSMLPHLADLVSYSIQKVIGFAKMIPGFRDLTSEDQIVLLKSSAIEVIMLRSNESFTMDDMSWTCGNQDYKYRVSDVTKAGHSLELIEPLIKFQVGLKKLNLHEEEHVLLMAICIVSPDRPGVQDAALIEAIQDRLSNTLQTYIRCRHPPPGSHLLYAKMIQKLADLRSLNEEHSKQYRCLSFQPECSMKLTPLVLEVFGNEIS
Outline: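 Tox21 cell reporter format: VDR-bla line, 16 h compound exposure in 5% CO2 at 37C, then fluorescence intensity after 2 h with LiveBLAzer B/G FRET substrate.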

[12] = target: Vitamin D3 receptor (Homo sapiens) (UniProt P11473); assay: qHTS assay to identify small molecule antagonists of the vitamin D receptor (VDR) signaling pathway (AID 743223; active means well fitted inhibition curve with a large enough effect in the signal ratio in the repeat runs, not every such curve was filed as active; inconclusive means weak or mixed curves, or effect the other way; inactive means no such curve, though single readings can be large or run the other way; the % refers to the signal ratio; further: potency means the concentration at half of the fitted maximal effect); settings: VDR-UAS-bla HEK293T, beta-lactamase FRET ratio, 16 h; activity change, negative = inhibition: at 61 µM (top of the series) unless noted
Outline: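 Beta-lactamase reporter read-out: FRET substrate fluorescence after 2 h at room temperature, following 16 h exposure of VDR-bla cells to test compound plus 3 nM (final) 1alpha,25-dihydroxyvitamin D3 agonist at 37C.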

[13] = qHTS assay to identify small molecule antagonists of the vitamin D receptor (VDR) signaling pathway - cell viability counter screen (AID 743225); settings: VDR-bla HEK293T viability, CellTiter-Glo luminescence, 16 h; viability change, negative = cytotoxic: at 61 µM (top of the series) unless noted; further: potency means the concentration at half of the fitted maximal effect; nearly all actives have a fitted effect of over 50% in size
Outline: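 Viability counter screen run in the same wells as the beta-lactamase reporter assay: HEK 293T VDR-UAS-bla cells, 16 h compound exposure at 37C with 3 nM (final) 1-alpha,25-dihydroxyvitamin D3. CellTiter-Glo luminescence, 30 min, room temperature.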

[14] = qHTS assay for small molecule activators of the heat shock response signaling pathway - cell viability counter screen (AID 743209); settings: HSE-bla HeLa viability, CellTiter-Glo luminescence, 5 h; activity change, negative = cytotoxicity: at 62.6 µM (top of the series)
Outline: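 Compounds dissolved in DMSO were added to overnight-plated HSE-bla HeLa cells and left 5 h at 37 C. Cell viability was quantified by luminescence using CellTiter-Glo.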

[15] = target: Peroxisome proliferator-activated receptor delta (Homo sapiens) (UniProt Q03181); assay: qHTS assay to identify small molecule agonists of the peroxisome proliferator-activated receptor delta (PPARd) signaling pathway (AID 743212; calls by dose curve; further: potency means the concentration at half of the fitted maximal effect); settings: HEK293H PPARd-UAS-bla, beta-lactamase FRET ratio, 17 h
Outline: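 Beta-lactamase reporter readout: a ratiometric FRET signal from the LiveBLAzer substrate after 2 h at room temperature. Compound exposure at 37 °C in PPARδ-bla HEK293H cells driven by an upstream activator sequence.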

[16] = qHTS assay to identify small molecule antagonists of the farnesoid-X-receptor (FXR) signaling pathway - cell viability counter screen (AID 743221; active means well fitted cell-killing curve with a large enough effect in the repeat runs, not every such curve was filed as active; inconclusive means weak or mixed curves, or effect the other way; inactive means no such curve, though single readings can be large or run the other way); settings: FXR-bla HEK293T viability, CellTiter-Glo luminescence, 16 h; activity change, negative = cytotoxicity: at 62.6 µM (top of the series) unless noted
Outline: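 HEK 293T FXR-bla cells, 5 h pre-incubation; compound + CDCA 50 uM final, 16 h, 37 C; beta-lactamase FRET read first, then CellTiter-Glo luminescence, 30 min RT.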

[17] = qHTS assay to identify small molecule agonists of the farnesoid-X-receptor (FXR) signaling pathway - cell viability counter screen (AID 743218); settings: FXR-bla HEK293T viability, CellTiter-Glo luminescence, 16 h; viability change, negative = cytotoxic: at 62.6 µM (top of the series) unless noted; further: potency means the concentration at half of the fitted maximal effect; nearly all actives have a fitted effect of over 45% in size
Outline: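 Quantitative HTS counter screen measuring ATP-based viability via CellTiter-Glo luminescence in HEK 293T cells carrying a UAS-driven beta-lactamase reporter, after 16 h compound exposure at 37 C.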

[18] = target: Bile acid receptor (Homo sapiens) (UniProt Q96RI1); assay: qHTS assay to identify small molecule agonists of the farnesoid-X-receptor (FXR) signaling pathway (AID 743220; active means well fitted activation curve with a large enough effect in the signal ratio in the repeat runs, not every such curve was filed as active; inconclusive means weak or mixed curves, or effect the other way; the % refers to the signal ratio; further: potency means the concentration at half of the fitted maximal effect); settings: HEK293T FXR-UAS-bla, beta-lactamase FRET ratio, 16 h; activation: at 62.6 µM (top of the series)
Outline: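 FXR-UAS-bla HEK 293T cells carrying a UAS-driven beta-lactamase reporter were plated for 5 h at 37C/5% CO2, then exposed to DMSO-dissolved Tox21 10K compounds for 16 h at 37C. A LiveBLAzer B/G FRET substrate was loaded for 2 h at room temperature before fluorescence reading.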

[19] = activation: at 62.6 µM (top of the series) unless noted
Tags describe the fitted curve by direction and shape or compound fluorescence and quenching.

Oc1ccc(C2(c3ccc(O)c(C4CCCCC4)c3)CCCCC2)cc1C1CCCCC1
inconclusive: Potency [2] 38.9 µM [cytotoxic, partial curve]
active: Potency [1] 17.2 µM

COc1cc(C(C)C)ccc1C
inconclusive: Potency [1] 16.4 µM [inhibitor, single point] | Potency [2] 9.28 µM [falling, partial curve, poor fit]

CCCCCCCCCCCC(=O)Cl
inactive: Potency [1]
inconclusive: activation [2] -15.6%

C[C@]12CCC(=O)C=C1C=C[C@@H]1[C@@H]2CC[C@@]2(C)[C@H]1CC[C@@]21CCC(=O)O1
inconclusive: Potency [1] 33.5 µM [inhibitor, single point] | activation [2] 13.7% [at 35.3 µM]
inactive: Potency [4] | Potency [5]
active: Potency [3] 11.9 µM

COc1cc(Cl)ccc1Oc1ccc(Cl)cc1Cl
inactive: Potency [3] | Potency [6] | Potency [4] | Potency [8]
inconclusive: Potency [9] 23.9 µM [cytotoxic, partial curve] | Potency [1] 0.941 µM [inhibitor, single point] | Potency [2] 23.9 µM
active: Potency [7] 47.6 µM

OC(CN1CCC(Cc2ccc(F)cc2)CC1)c1ccc(Cl)cc1 (centres undefined)
inconclusive: activation [3] -14% | Potency [6] 29.8 µM [cytotoxic, partial curve] | Potency [4] 32.2 µM [activator] | Potency [11] 33.5 µM | activity change, negative = inhibition [12] -20.2% | Potency [9] 33.5 µM [cytotoxic, partial curve, poor fit] | Potency [13] 30.1 µM [cytotoxic, single point] | Potency [1] 16.8 µM [inhibitor, partial curve, poor fit] | Potency [2] 23.9 µM [falling, single point]
inactive: Potency [10] | Potency [8]

CCCCCCCCC/C=C/CC1CC(=O)OC1=O (centres undefined)
inactive: activation ([15]; at 81.1 µM (top of the series)) 1.18%
inconclusive: Potency [3] 27.4 µM [rising, partial curve] | activation [3] 27.7% | Potency [14] 38.9 µM [cytotoxic, partial curve, poor fit] | activation [15, 19] 8.48% | activity change, negative = inhibition [8] -11.1% | Potency [16] 1.74 µM [falling, full curve, poor fit] | activation [11] 1.93% [at 81.1 µM] | activity change, negative = inhibition [12] 30.3% [activator] | Potency [1] 68.9 µM [inhibitor, single point] and 68.6 µM [inhibitor, single point] | activation [2] 1.35%

Clc1ccc(Cn2c(CN3CCCC3)nc3ccccc32)cc1
inconclusive: activation [3] 9.54% | Potency [4] 8.41 µM | Potency [15, 19] 33.5 µM [single point] | viability change, negative = cytotoxic [10] -33.3% [cytotoxic] | Potency [5] 33.5 µM [inhibitor, single point] | Potency [8] 33.5 µM [rising, single point] | Potency [17] 15 µM [cytotoxic, partial curve] | Potency [18] 5.31 µM [activator, partial curve] | Potency [16] 29.8 µM | activation [11] -21.3% | Potency [13] 26.8 µM [cytotoxic, single point] | Potency [1] 33.5 µM [inhibitor, single point] | Potency [2] 26.8 µM [activator, single point]
active: Potency [7] 29.8 µM

CCCCCCCC(=O)OCC
inactive: Potency [1] | Potency [2]

Oc1c(Cl)ccc(Cl)c1Cl
inactive: Potency [18]
inconclusive: Potency [3] 38.5 µM [rising, partial curve] | activation [3] 31.7% | Potency [12] 54.9 µM [fluorescent, single point] | Potency [13] 0.0436 µM [rising, partial curve, poor fit] | Potency [1] 48.5 µM [inhibitor, partial curve, poor fit] and 61.1 µM [inhibitor] | Potency [2] 48.9 µM [activator, partial curve, poor fit]
